Among all 150,000 compounds or so, about 540 (0.36%) showed an effect of 50% or more. This is one part of the list.

The test system of this experiment is Plasmodium falciparum. Kind of experiment: Primary screen in NF54 nanoGlo assay, in single point, at 2uM, 72h; a lower Z score goes with more inhibition. Format: functional, Erythrocyte. As to conditions: timepoint 72 hour.
On to `CCn1c(-c2cc(NC(=O)c3ccc(C)c(F)c3)[nH]n2)cc2ccc(OC)cc21`, for which the % Inhibition (as a rule, the change of the read-out against control, counted positive when it falls) amounted to 18% and the Z score is on record as -2.

`CC(C)C[C@@H](C(=O)O)N(C)C(=O)c1ccc2c(c1)CC(C)O2` (stereo partly drawn): the “% Inhibition” value is given as -6% and the Z score is on record as 1.07.

As to `O=C(NC1(c2ccccc2)COC1)c1cc(OCC(F)F)ccn1`, the “% Inhibition” value stood at 4% and the Z score was -0.81.

Turning to `COc1ccc(NC(=O)c2c([O-])n(-c3ccc(OC)cc3)n[n+]2CCN2CCCCC2)cc1`, the “% Inhibition” value is -7% and the Z score is given as 1.12.

As to `O=C(c1cscn1)N1CC[C@H]2C(=O)N(Cc3ccccc3)CC(=O)N2CC1`, the “% Inhibition” value was -7% and the Z score was determined as 0.91.

With `NC(C(=O)NC1CC1c1ccccc1F)c1cccc(Cl)c1` (stereo not drawn), the “% Inhibition” value was -5% and the Z score is 0.56.

For `Cc1ccsc1C(=O)Nc1cc(S(=O)(=O)N2CCOCC2)ccc1N1CCOCC1`, the “% Inhibition” value is on record as -1% and the Z score amounted to 0.14.

With `C[C@H](NS(=O)(=O)c1ccc(F)cc1)c1nnc2n1CCCCC2`, the “% Inhibition” value came out at 6% and the Z score is reported as -0.9.

Take `Cc1cnccc1C(=O)NC1CCS(=O)(=O)CC1`: the “% Inhibition” value is 2% and the Z score was -0.27.

As to `Cc1oc(CNC(=O)c2ccccc2F)nc1C(=O)N1CCCC1`, the “% Inhibition” value is on record as -11% and the Z score was 1.39.

With `Oc1ccc(Br)cc1-c1nc2cnccn2c1NC1CCCCC1`, the “% Inhibition” value is given as 32% and the Z score is recorded as -1.65.

As for `CN=C(NCc1ccccc1)NC1CC1`, the “% Inhibition” value is -7% and the Z score was 0.97.

For the compound `COc1ccc(NC(=O)N2CCCC[C@H]2c2noc(COCC3CC3)n2)c(C)c1`, the “% Inhibition” value is recorded as -8% and the Z score stood at 1.05.

Regarding `O=C(c1c[nH]c2ccccc2c1=O)N1CCS(=O)(=O)C[C@H]1C1CC1`, the “% Inhibition” value is listed as -6% and the Z score is recorded as 1.01.

For the compound `CCOc1cc(CC#N)cc(Br)c1OC(F)F`, the “% Inhibition” value is recorded as -16% and the Z score is 3.12.

For `COCC(=O)N[C@H]1CO[C@@H](CN2CCC(F)(F)C2)[C@@H]1O`, the “% Inhibition” value is given as -7% and the Z score stood at 1.05.

As to `O=C(CN1CCn2nc(-c3ccccc3)cc2C1=O)N1CCOCC1`, the “% Inhibition” value is -3% and the Z score was 0.46.

Consider `COc1ccc(-c2n[nH]c(C(F)(F)F)n2)c(OC)n1`, for which the “% Inhibition” value was -11% and the Z score turned out to be 1.45.

For the compound `Cc1nc[nH]c1C(=O)NCc1cccnc1N1CCCCCCC1`, the “% Inhibition” value is given as -17% and the Z score came out at 1.68.

Turning to `Cn1c2c(cc(-c3ncnn3Cc3ccccc3)c1=O)CCCC2`, the “% Inhibition” value is recorded as 2% and the Z score is listed as -0.24.

Take `CC(C)S(=O)(=O)NC1CCCCCC1`: the “% Inhibition” value is -11% and the Z score turned out to be 2.26.

In the case of `CN(Cc1ccsc1)C(=O)CN1CCc2cncnc2C1`, the “% Inhibition” value stood at 2% and the Z score is given as -0.23.

`O=C(Nc1cc[nH]n1)[C@H](Cc1ccccc1)n1cnnn1`: the “% Inhibition” value is given as -11% and the Z score amounted to 1.46.

With `COCCN(CCOC)c1cc(C)ncn1`, the “% Inhibition” value was -11% and the Z score was determined as 1.33.

For the compound `CC1(C)NC(=O)N(CCN2CCC[C@H](c3n[nH]c(C4CCCCC4)n3)C2)C1=O`, the “% Inhibition” value was 14% and the Z score is recorded as -1.54.

Turning to `c1cnc(N2CCC[C@H](c3nc(-c4cc5ccccc5o4)no3)C2)nc1`, the “% Inhibition” value was -14% and the Z score is recorded as 1.44.

For `COc1cc(C)c(S(=O)(=O)N2CCc3cc4ccccc4nc32)cc1C`, the “% Inhibition” value is reported as -10% and the Z score was determined as 1.11.

In the case of `CCn1c(=O)c2nscc2n(CC(=O)Nc2ccc(C)cc2)c1=O`, the “% Inhibition” value amounted to 2% and the Z score is -0.22.

Consider `Cc1cccc(NC(=O)Cn2nnc(-c3ccc4c(c3)OCO4)n2)c1C`, for which the “% Inhibition” value is recorded as -1% and the Z score is given as 0.13.

On to `CN(C)c1nc(CNc2nnc(C(F)(F)F)s2)cs1`, for which the “% Inhibition” value came to 3% and the Z score was -0.39.

Consider `CC1CC(C)CN(S(=O)(=O)c2ccc(C(=O)Nc3nc4c(s3)CCCC4)cc2)C1` (stereo not drawn), for which the “% Inhibition” value is -13% and the Z score amounted to 2.3.

As for `Cn1cc([C@H]2OCC[C@@H]2CNC(=O)NCC2CCc3ccccc3CC2)cn1`, the “% Inhibition” value is on record as -2% and the Z score is given as 0.22.

Regarding `Cc1noc(C)c1Cn1cc2c3c(cccc31)[C@H](CC(C)C)N[C@H](C(=O)N1CCN(C)CC1)C2`, the “% Inhibition” value is reported as -10% and the Z score stood at 1.31.

As for `CC(C)c1nccc(N2CCCC[C@@H]2CC(=O)O)n1`, the “% Inhibition” value was -17% and the Z score is on record as 3.29.

Take `CC[C@H](C)Cc1nc(-c2ccc(Cn3cccn3)o2)n(CC(C)(C)O)n1`: the “% Inhibition” value is -11% and the Z score turned out to be 1.62.

With `COc1ccc(CC(=O)N2CCc3nc(N4CCC(C)CC4)nc(Oc4cccc(OC)c4)c3C2)cc1`, the “% Inhibition” value was -7% and the Z score was determined as 1.1.

Turning to `O=C(c1nnc(N2CCC(C3CCOC3)C2)n1CC1CCOC1)N1CCCC1` (stereo not drawn), the “% Inhibition” value is -7% and the Z score came to 1.28.

With `Cc1ccc(C(=O)Nc2ccccc2OCC2CC2)c(=O)[nH]1`, the “% Inhibition” value is recorded as -3% and the Z score stood at 0.51.

For `CCOc1cc([C@H]2C(C(N)=O)=C(C)Nc3nc(C)nn32)ccc1OCc1ccccc1`, the “% Inhibition” value is listed as -6% and the Z score is 0.92.

As for `COc1cc(Cl)c(C)cc1NC(=O)C[C@H]1CCCCN(C)C1=O`, the “% Inhibition” value was -15% and the Z score was determined as 2.81.

With `c1csc(-c2ncn(Cc3nnc4n3CCCCC4)n2)n1`, the “% Inhibition” value is reported as 2% and the Z score is reported as -0.42.

For `CN(C)c1nc(CCC2CCN(C(=O)c3cc(C4CC4)[nH]n3)CC2)no1`, the “% Inhibition” value is -8% and the Z score stood at 1.31.

Turning to `CC(C)c1ccc(O)c(NC(=O)c2nc(-n3cnnc3)ccc2Br)c1`, the “% Inhibition” value is given as -4% and the Z score was 0.52.

Consider `O=C(Cn1ncn2nc3c(c2c1=O)CCCC3)Nc1ccccc1F`, for which the “% Inhibition” value is listed as -7% and the Z score came to 0.89.

Turning to `Cc1nn(C)c(OCCC2CCCC2)c1C`, the “% Inhibition” value is given as -9% and the Z score was determined as 1.02.

For the compound `OCc1ccc(-c2nccn2[C@H]2COC[C@@H]2N2CCCCC2)o1`, the “% Inhibition” value is -22% and the Z score is listed as 3.1.

Turning to `NS(=O)(=O)c1ccc(CCNC(=O)c2nc(N3CCCCC3)ncc2Cl)cc1`, the “% Inhibition” value is reported as -14% and the Z score was 2.88.

For the compound `Cc1noc(C2CCN(C(=O)[C@@H]3Cc4cc(Cl)ccc4O3)CC2)n1`, the “% Inhibition” value was -1% and the Z score is listed as 0.08.

As to `Cc1ccccc1OCC(=O)N1Cc2cncnc2C1`, the “% Inhibition” value is recorded as -4% and the Z score turned out to be 0.68.

On to `Cc1ccccc1CNC(=O)Cn1cc(-c2ccccc2)sc1=O`, for which the “% Inhibition” value was determined as 4% and the Z score is -0.84.

Regarding `COc1ccc(C)cc1-c1nn(CC(C)C)cc1C(=O)NC[C@H]1Cc2ccccc2O1`, the “% Inhibition” value was -14% and the Z score is 2.25.

Turning to `O=C(NCc1ccccn1)c1cc(C(F)(F)F)cc(C(=O)Nc2ccccc2)n1`, the “% Inhibition” value came to 39% and the Z score was -1.13.

On to `COCC1(CNS(=O)(=O)N2CCC(C)(C)CC2)CCCC1`, for which the “% Inhibition” value is recorded as -10% and the Z score was 1.8.

As to `O=C(c1cc2c(s1)CCOC2)N1CCC2(CCC2)C1`, the “% Inhibition” value is -13% and the Z score came out at 1.47.

The values are drawn from ChEMBL document CHEMBL4888484, “Replenishing the malaria drug discovery pipeline: Screening and hit evaluation of the MMV Hit Generation Library 1 (HGL1) against asexual blood stage Plasmodium falciparum ,using a nano luciferase reporter read-out” (2022).
